Test results from PubChem BioAssay AID686978 (National Center for Advancing Translational Sciences (NCATS), 2013).
Values joined by “and” are separate entries in the source; they are usually repeats but may differ in a detail not shown here. Equal entries are not always repeated. Screen size: about 420,000 compounds; about 64,000 (15%) were called active. This list was built around the results that the source calls inconclusive (neither active nor inactive); the mix of calls is not that of the screen. Calls follow the shape of the dose curve; as a rule, active = well fitted inhibition curve with a large enough effect; inconclusive = small, poorly fitted or top-dose-only effect; inactive = flat fitted curve, though single readings scatter. Potencies beside an inconclusive call are fits to weak or partial responses and may not hold up.

Test: qHTS for Inhibitors of human tyrosyl-DNA phosphodiesterase 1 (TDP1): qHTS in cells in absence of CPT; also: nearly all actives have a fitted effect of over 55% in size
Settings: DT40 Tdp1-/- hTDP1 cells, no CPT, ATP luminescence, 48 h; activity change, negative = growth inhibition: at 46.2 µM (top of the series)
Method in brief: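 Growth of hTDP1-complemented DT40 Tdp1-knockout cells is measured by ATP luminescence after at least 48 hr compound exposure at 37 °C, with DMSO substituting for the 20 nM CPT used in the parallel screen.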
% is scaled to controls: 0 for no effect and ±100 for the full control effect; potency is read from the fitted curve at half-maximal effect; tags tell the direction and shape of the fitted curve.

Row | Compound | Potency | activity change, negative = growth inhibition
1 | COc1ccc(N2C(=O)c3ccccc3NC2c2ccc(OC)c(Cn3nnc4ccccc43)c2)cc1 (centres undefined) | inconclusive: 29.1 µM [inhibitor, single point] | –
2 | Cc1ccc(Nc2ncc3c(n2)CC(C)CC3=O)c(C)c1 (centres undefined) | inconclusive: 23.1 µM [inhibitor, single point] | –
3 | Cc1cccc(CSc2nc3cc(C(=O)NC4CCCC4)ccc3c(=O)n2Cc2ccccc2)c1 | – | inactive: -22.4%
4 | CC1CCCCC1NC(=O)COc1ncnc2sccc12 (centres undefined) | – | inactive: 0.989%
5 | CCc1ccc(NC(=O)C2CCN(c3ncnc4c3nc3n4CCCCC3)CC2)cc1 | inconclusive: 29.1 µM [inhibitor, single point] | –
6 | O=c1c2ccccc2[nH]c(=S)n1-c1cccc(S(=O)(=O)N2CCCC2)c1 | inconclusive: 18.4 µM [inhibitor, single point] | –
7 | Cc1nc2scc(-c3ccc(C(C)C)cc3)c2c(=O)n1N | inconclusive: 23.1 µM [inhibitor, single point] | –
8 | O=C(CC1=NCCNC(c2ccccc2)C1)c1ccccc1O (centres undefined) | inconclusive: 23.1 µM [inhibitor, single point] | –
9 | CC(=O)N1CC(C)Oc2ccc(S(=O)(=O)NC(CC(=O)O)c3ccc(C)cc3C)cc21 (centres undefined) | – | inactive: 6.44%
10 | Cc1ccc(CNS(=O)(=O)c2ccc(-c3cnc(C4CC4)o3)cc2)cc1 | inconclusive: 13 µM [inhibitor, partial curve, poor fit] and inconclusive: 18.4 µM [inhibitor, partial curve] | –
11 | Cc1ccc2c(c1)c1c(n2CC(O)Cn2ccnc2C)C(=O)CCC1 (centres undefined) | inconclusive: 29.1 µM [inhibitor, single point] | –
12 | CC(C)CCn1c(O)c(N=NC(=O)Cn2ccc(C(F)(F)F)n2)c2ccccc21 | active: 23.1 µM | –
13 | O=C(O)c1cccc2c1-c1ccc([N+](=O)[O-])cc1C2=O | inconclusive: 29.1 µM [inhibitor, single point] | –
14 | CC(C)C[C@H]1COCCS(=O)(=O)N1Cc1cccc(C(F)(F)F)c1 | inconclusive: 29.1 µM [inhibitor, single point] | –
15 | Cc1cc([N+](=O)[O-])ccc1NC(=O)c1sc2ncn(CC(=O)N3CCOCC3)c(=O)c2c1C | inconclusive: 23.1 µM [inhibitor, single point] | –
16 | Cc1ccc(-c2nnc(N3CCCCC3)c3ccccc23)cc1 | active: 23.1 µM | –
17 | Cc1ccc(S(=O)(=O)c2c(N)n(C)c3nc4ccccc4nc23)cc1 | active: 13 µM | –
18 | Cc1nnc(NC(=O)C(C)Sc2nnc(CNC(=O)c3ccccc3F)n2C)s1 (centres undefined) | – | inactive: -3.59%
19 | COc1ccc(CCNC(=O)CSc2ccc3ccccc3c2)cc1OC | inconclusive: 29.1 µM [inhibitor, single point] | –
20 | CC(C)c1ccc(-n2nnnc2SCc2nc(N)nc(N)n2)cc1 | inconclusive: 20.6 µM [inhibitor, partial curve] | –
21 | CN1CCN(CC(=O)N2N=C(c3cccs3)CC2c2ccco2)CC1 (centres undefined) | – | inactive: -7.45%
22 | CC[C@]12C(=O)N(C)C[C@H]([C@@H]3C(=O)N(C)C(=O)[C@@H]31)N2C(=O)c1ccccc1 | – | inactive: -2.44%

Row | Compound | Potency | activity change, negative = growth inhibition
23 | COc1ccc(C(=O)CCC(=O)NCCc2c[nH]c3ccccc23)cc1OC | inconclusive: 13 µM [inhibitor, partial curve] | –
24 | CCCN(CCC)CC(O)Cn1cc(/C=C/C(=O)c2ccc(OC)cc2)c2ccccc21 (centres undefined) | active: 5.17 µM | –
25 | CC1CCCCN1C(=O)c1ccc2c(c1)N(Cc1cccc(Cl)c1)C(=O)c1ccccc1S2=O (centres undefined) | active: 20.6 µM | –
26 | CCCc1cc(=O)[nH]c(SCc2cc(Cl)ccc2OC(F)F)n1 | – | inactive: -9.14%
27 | Cc1ccc(C(=O)NCCc2nnc3ccc(SCC(=O)Nc4ccccc4F)nn23)cc1 | – | inactive: -20%
28 | CNC(=O)COC(=O)/C=C/c1c(C)nn(-c2ccccc2)c1C | – | inconclusive: -29.8% [inhibitor]
29 | Cc1ccc(CNC(=O)c2ccc(N3CCC4(CC3)CC(c3ccccc3)=NO4)c(NC(=O)c3ccco3)c2)cc1 | inconclusive: 4.11 µM [inhibitor, full curve, poor fit] | –
30 | CCCCNC(=O)C1(C)CCCCN1C(=O)c1cc(OC)ccc1Br (centres undefined) | inconclusive: 16.4 µM [inhibitor, partial curve, poor fit] | –
31 | Cc1ccc(S(=O)(=O)Nc2cccc(-c3ccc(N4CCCCCC4)nn3)c2)cc1C | active: 23.1 µM | –
32 | CCC[C@@H](CN1CCC[C@H]1CN1C(N)=NC[C@@H]1Cc1ccccc1)N1C[C@@H]([C@H](C)CC)N(CCc2ccc(Cl)c(Cl)c2)C1=N | inconclusive: 29.1 µM [inhibitor, single point] | –
33 | Cn1c2c(c(=O)n(C)c1=O)C(NS(=O)(=O)c1ccccc1)(C(F)(F)F)C(=O)N2 (centres undefined) | – | inactive: 1.3%
34 | O=C(NCc1ccccc1F)c1ccc2c(c1)OCCO2 | – | inactive: 7.04%
35 | CCCCNC(=O)c1cccc(-n2cnc3cccnc32)c1C | inconclusive: 29.1 µM [inhibitor, single point] | –
36 | Cc1ccc(S(=O)(=O)Nc2ccccc2C(=O)Nc2ccc(S(=O)(=O)Nc3nccc(C)n3)cc2)cc1 | – | inactive: -8.3%
37 | Cc1ccc(S(=O)(=O)N2CCCCC2)cc1NC(=O)COC(=O)Cc1cccc(C(F)(F)F)c1 | – | inconclusive: -31.1% [inhibitor]
38 | Cc1ncc([N+](=O)[O-])n1CCOC(=O)c1ccc(Br)cc1 | – | inactive: -19.1%
39 | COC(c1ccccc1)c1nnc(CCC(=O)NCCCc2ccccc2)o1 (centres undefined) | inconclusive: 29.1 µM [inhibitor, single point] | –
40 | CCOC(=O)c1c(-c2ccc(C)s2)csc1N | inconclusive: 18.4 µM [inhibitor, partial curve] | –
41 | Cc1cc(N(C)Cc2ccccc2)n2nc(-c3ccc(C(C)(C)C)cc3)nc2n1 | inconclusive: 29.1 µM [inhibitor, single point] | –
42 | O=C(CNC(=S)NC(=O)c1ccccc1)c1ccccc1 | – | inactive: -18.9%
43 | COc1ccc(C(C(O)C(=O)c2c[nH]c3ccccc23)N2CCN(c3ccccc3)CC2)cc1 (centres undefined) | active: 25.9 µM | –
44 | CC(c1ccccc1C(=O)O)c1cc(F)cc2ccccc12 (centres undefined) | inconclusive: 23.1 µM [inhibitor, partial curve] | –
